# Data as given in paper PMC4336329 (PLoS ONE, 2015).
# The whole screen tested about 310,000 compounds, of which about 2,200 (0.71%) showed an effect of 50% or more. Effects have a minus sign here. The list shows a part of the results.
# Molecular target: human ether-à-go-go-related gene (hERG) potassium channel (human, UniProt Q12809)
# Test: primary screen, population patch clamp on CHO cells stably expressing hERG
# Sequence of human ether-à-go-go-related gene (hERG) potassium channel (Q12809 whole entry, looked up): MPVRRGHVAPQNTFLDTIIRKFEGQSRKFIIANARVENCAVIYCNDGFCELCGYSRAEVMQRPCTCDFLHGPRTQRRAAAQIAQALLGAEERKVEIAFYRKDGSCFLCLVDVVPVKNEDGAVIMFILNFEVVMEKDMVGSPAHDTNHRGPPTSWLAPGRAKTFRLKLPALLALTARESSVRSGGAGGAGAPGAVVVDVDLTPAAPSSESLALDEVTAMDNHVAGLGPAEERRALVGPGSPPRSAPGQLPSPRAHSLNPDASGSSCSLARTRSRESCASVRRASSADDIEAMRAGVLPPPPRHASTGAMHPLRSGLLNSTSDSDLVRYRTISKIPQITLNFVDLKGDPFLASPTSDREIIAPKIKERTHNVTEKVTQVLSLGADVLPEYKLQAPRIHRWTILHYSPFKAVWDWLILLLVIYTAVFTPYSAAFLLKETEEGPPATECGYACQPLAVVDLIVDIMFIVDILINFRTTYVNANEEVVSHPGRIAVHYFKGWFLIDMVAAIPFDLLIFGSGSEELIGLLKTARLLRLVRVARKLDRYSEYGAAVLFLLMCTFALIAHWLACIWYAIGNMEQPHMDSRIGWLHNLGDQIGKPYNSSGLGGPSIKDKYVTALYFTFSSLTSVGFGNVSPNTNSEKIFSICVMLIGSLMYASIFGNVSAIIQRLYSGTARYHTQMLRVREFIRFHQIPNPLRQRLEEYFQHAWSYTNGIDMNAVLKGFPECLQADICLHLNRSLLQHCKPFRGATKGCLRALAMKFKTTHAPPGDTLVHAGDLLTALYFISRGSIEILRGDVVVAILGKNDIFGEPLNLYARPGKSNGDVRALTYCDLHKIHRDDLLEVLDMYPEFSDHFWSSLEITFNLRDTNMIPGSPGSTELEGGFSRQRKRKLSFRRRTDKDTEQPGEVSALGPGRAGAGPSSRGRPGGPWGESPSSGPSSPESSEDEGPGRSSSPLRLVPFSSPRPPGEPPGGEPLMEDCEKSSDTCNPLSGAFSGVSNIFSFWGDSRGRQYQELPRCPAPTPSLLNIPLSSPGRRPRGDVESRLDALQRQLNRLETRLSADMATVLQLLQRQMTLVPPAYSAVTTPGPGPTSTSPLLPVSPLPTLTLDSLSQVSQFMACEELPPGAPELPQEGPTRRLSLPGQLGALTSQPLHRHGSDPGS
row,SMILES,"hERG current change (%, negative = inhibition) at 1uM [%]"
1,Cc1ccc(COc2ccc(/C=N/NC(=O)c3nnn(-c4nonc4N)c3COc3ccc(F)cc3)cc2)cc1,3
2,Cc1ccc(OCC(=O)Nc2ccc(CN3CCOCC3)cc2)cc1,9.56
3,CCCn1nc(C(=O)Nc2ccc(N3CCOCC3)cc2)c2ccccc2c1=O,1.6
4,Cc1ccc(C2CC(C(F)(F)F)n3ncc(C(N)=O)c3N2)cc1 (centres unmarked),-1.58
5,Cc1ccc(NC(=O)COc2cccc(/C=C3\SC(=S)N(CCC(=O)O)C3=O)c2)cc1Cl,6.41
6,COc1cnc(-c2ccccn2)nc1Oc1ccccc1,-36.5
7,S=C(NCc1ccccc1)N1CCn2cccc2C1c1ccncc1 (centres unmarked),9.11
8,CC1CC(C)CN(c2ccc([N+](=O)[O-])nc2)C1 (centres unmarked),14.9
9,CCc1cc[n+](/C(C(=S)Nc2cccc(C)c2)=C(/[O-])c2ccc(C)c([N+](=O)[O-])c2)cc1,-0.526
10,CCn1cc(CN(C)S(=O)(=O)c2ccc3ccccc3c2)c(C)n1,14.3
11,Cc1cc(C)c2c(SC(C)C)nc(N)nc2n1,9.51
12,CCOC(=O)c1cnc2sc3c(n2c1=O)CCCC3,-5.42
13,COc1ccc(OCC(O)CON2C(=O)c3ccccc3C2=O)cc1 (centres unmarked),-9.15
14,Cc1ccccc1OCC1CN(CN2CCOCC2)C(=O)O1 (centres unmarked),11.9
15,CCS(=O)(=O)c1nn2c(N)c(/C=C3/C=CC(=O)C(OC)=C3)c(=O)nc2s1,7.06
16,O=[N+]([O-])c1cccc(-c2ccn[nH]2)c1,10.4
17,Cn1cnnc1SCC(=O)N/N=C/c1ccc(OCC(N)=O)cc1,14
18,CCOc1c(Cl)cc(CNCC(C)C)cc1Cl.Cl,8.15
19,CCCCCSc1cc(O)c(C(CNC)C(C)C)cc1OC.O=C(O)/C=C\C(=O)O (centres unmarked),-1.06

row,SMILES,"hERG current change (%, negative = inhibition) at 1uM [%]"
1,COc1ccc(CCCc2nnc(SCc3nc4ccccc4c(=O)[nH]3)n2C)cc1,8.12
2,CCCCn1c2ccc(F)cc2c2nnc(NN)nc21,9.16
3,O=C(COC(=O)Cc1n[nH]c(=O)c2ccccc12)NNC(=O)c1ccc(Cl)cc1,-3.18
4,COc1ccccc1NC(=O)C1=C(C)Nc2nnnn2C1c1cc(Br)ccc1OC (centres unmarked),9.68
5,O=c1oc(-c2ccccc2NS(=O)(=O)c2ccc3ccccc3c2)nc2ccccc12,16.5
6,COc1ccccc1-c1c(C)nn2c(C)cc(C)nc12,-1.21
7,O=C(Nc1ccc(-c2cn3ccsc3n2)cc1)C1COc2ccccc2O1 (centres unmarked),12.6
8,C/C(=C\C(=O)c1ccc(Cl)cc1)Nc1ccc(Br)cc1,10.3
9,COc1ccc(-n2nc(C(=O)NCC(=O)N3CCN(c4ccccn4)CC3)c3ccccc3c2=O)c(OC)c1,11
10,O=C(Nc1ccccc1F)c1cc(Cl)sc1Cl,11.3
11,CC1=NN(c2ccccc2)C(=O)/C1=C/c1c(O)[nH]c(=O)[nH]c1=O,11
12,Cn1c(NN=O)nc2ccccc21,17.6
13,CC1(C)C2([N+](=O)[O-])CN3CC1([N+](=O)[O-])CN(C2)C3C(O)C(O)C(O)CO (centres unmarked),15.4
14,O=C(NC1(Cc2ccccc2)CCN(CCCc2ccccc2)C1=O)c1ccccc1 (centres unmarked),13.7
15,O=C1CC(c2ccccc2)CC(O)=C1C=NCc1ccncc1 (centres unmarked),4.86
16,C/C(=N\NC(=O)c1csc(C)c1C)c1ccc(C)s1,-0.21
17,NC(=O)C1CCN(C2=C(NS(=O)(=O)c3ccccc3)C(=O)c3ccccc3C2=O)CC1,5.89
18,COc1ccc(/C=N/NC(=O)c2ccc(NC(=O)C3CCCCC3)cc2)cc1O,8.66
19,COCCN1C(=O)c2cc(C(=O)Nc3ccc(C)c(F)c3)ccc2C1Nc1ccc(C)c(F)c1 (centres unmarked),6.09

row,SMILES,"hERG current change (%, negative = inhibition) at 1uM [%]"
1,O=Nc1c2ccc[nH]c-2c2ccc([N+](=O)[O-])cc12,10.3
2,N/C(=N\c1nc2c(c(=O)[nH]1)CCCC2)Nc1ccccc1Sc1ccccc1,2.21
3,CC(=O)NCCC(=O)Nc1cc(F)ccc1C,8.03
4,O=C1CC(N2CCN(c3ccc(F)cc3)CC2)C(=O)N1Cc1cccs1 (centres unmarked),-6.96
5,COc1ccc(/C=C/c2nc(-c3ccccc3O)n(-c3ccccc3)n2)cc1,4.95
6,Cc1oc2ccc(Br)cc2c(=O)c1-c1nn[nH]n1,2.52
7,Cc1cccc(C)c1NC(=O)c1c[nH]c2ccccc12,11.7
8,CC(=O)N1CCOc2ccc(S(=O)(=O)N3CCC(C(=O)Nc4ccc(C)c(C)c4)CC3)cc21,-2.04
9,Cc1noc(NC(=O)c2ccc(F)cc2)c1C#N,12.5
10,Cc1nnc(SCC(=O)NNC(=O)COc2ccc(Cl)cc2)n1C,15.5
11,Cc1cc(-c2nnc(CCC(=O)NCc3cc(F)cc(C(F)(F)F)c3)o2)no1,2.53
12,O=C(Cn1cc2c(n1)CCCC2)NCc1cccs1,9.19
13,O=[N+]([O-])c1ccc(N2CCCC(C(F)(F)F)C2)c2ccncc12 (centres unmarked),13.3
14,CC(C)c1cc(C(=O)Nc2cccnc2)no1,3.72
15,CCOc1cc(C2c3c(oc4cc(C)c(Cl)cc4c3=O)C(=O)N2Cc2ccco2)ccc1O (centres unmarked),17.3
16,Fc1ccccc1C1c2[nH]c3ccccc3c2CCN1Cc1cccn1-c1ncccn1 (centres unmarked),-11.9
17,O=C(COC(=O)c1cc2ccccc2o1)c1ccccc1,2.17
18,O=C(O)CC1(CC(=O)N2CCC(C(=O)O)CC2)CCCC1,12.6
